Laboratory results taken from ChEMBL document CHEMBL4888484, “Replenishing the malaria drug discovery pipeline: Screening and hit evaluation of the MMV Hit Generation Library 1 (HGL1) against asexual blood stage Plasmodium falciparum ,using a nano luciferase reporter read-out” (2022).
The campaign covered roughly 150,000 compounds. About 540 (0.36%) showed an effect of 50% or more. Some of the results follow.

What follows are compounds tested on Plasmodium falciparum (assay: Primary screen in NF54 nanoGlo assay, in single point, at 2uM, 72h; a lower Z score goes with more inhibition). Conditions: timepoint 72 hour.
Type: functional, Erythrocyte

Structure (SMILES) | % Inhibition | Z score
NC(=O)[C@@H]1CCCCN1C(=O)Cc1ccc(-c2ccccc2)cc1 | -3% | 0.41
O=C(CC[C@@H]1NC(=O)N(Cc2ccc3c(c2)OCO3)C1=O)Nc1ccc2c(c1)OCCO2 | 1% | -0.14
CN(C)c1ccccc1-c1ccc(CC(=O)O)cn1 | -3% | 0.51
O=C(NCCc1ccccc1)[C@@H]1C[C@H](n2cnnn2)CN1C/C=C/c1ccccc1 | -6% | 0.78
Cn1c(-c2ccc3c(c2)OCO3)cnc1NCc1cccc(Cl)c1 | 37% | -4.73
Cc1n[nH]c(C)c1CCN(C)Cc1ccc([C@@H]2CCCO2)s1 | -6% | 0.53
O=C(Nc1sc2c(c1C(=O)N1CCOCC1)CCCCC2)c1ccncc1 | -12% | 1.54
CN1CCCCCCN(C(=O)Nc2ccccc2)CCC1=O | -16% | 2.15
O=C(NCC(Cc1ccccc1)Cc1ccccc1)N1CC[C@H](O)C(F)(F)C1 | -4% | 0.81
COc1cc(CN2CCN(C(=O)CCNC(=O)c3ccccc3C)CC2)cc(OC)c1 | -1% | 0.09
C[C@@H](C1CC1)N(CC(F)(F)F)C(=O)c1ccc2nnnn2c1 | 6% | -0.94
COc1ccc(-c2nnc(C)o2)cc1NC(=O)C[C@H](C)n1cccn1 | -1% | 0.12
CC1(C)C(NS(=O)(=O)N2CCCC2)C(C)(C)C1NS(=O)(=O)N1CCCC1 (stereo unspecified) | 10% | -1.55
CNS(=O)(=O)c1cc(C(=O)NCC2(c3ccccc3)CC2)c(C)o1 | 9% | -1.28
Cc1cc(CN2CCC3(CCC(=O)N3C)CC2)[nH]n1 | -6% | 1.27
CCOc1cccc(CNC(=O)[C@H]2c3ccccc3CC(=O)N2CC)c1 | 0% | -0.04
Cc1c(C(C)N[C@@H]2CCCC[C@H]2NC(=O)OC(C)(C)C)cnn1C (stereo partly specified) | -8% | 1.01
CCn1c(CN2CCN(C(=O)c3ccco3)CC2)nc2cc(S(=O)(=O)N3CCCCC3)ccc21 | -13% | 2.53
C[C@H]1C(=O)N(C)C[C@H](CO)N1S(=O)(=O)c1ccc(F)cc1 | -14% | 1.68
COc1ccccc1N1CCN(c2ncccc2CNc2cccc(C#N)n2)CC1 | 13% | -1.84
Cc1ccc(NC(=O)Cn2nc3c(N4CCCCCC4)nccn3c2=O)c(Cl)c1 | -21% | 2.03

Structure (SMILES) | % Inhibition | Z score
C[C@@H](C(=O)N(Cc1ccccc1)C1CCCC1)n1cccn1 | -3% | 0.43
COc1c(Cl)cc(NC(=O)N(C)Cc2nccs2)cc1Cl | 9% | -0.88
CCNC(=O)CCC(=O)NC[C@H](Cc1ccccc1)C(=O)OCC | -8% | 1.27
Cc1cc(NC(=O)CN2CCCCCC2CC(O)c2ccco2)no1 (stereo unspecified) | -6% | 0.81
CC1CCN(C(=O)c2cccc3cn[nH]c23)CC1 | 0% | -0.03
CCn1cc(-c2c(-c3ccccc3)ncn2CCNc2cccnc2)c(C)n1 | -16% | 1.54
O=S(=O)(NCCN1CCCCCCC1)c1ccccc1 | -1% | 0.09
COc1cc2c(cc1OC)N(S(=O)(=O)c1ccc(C)cc1)CCCC2=O | -11% | 1.32
COc1cccc([C@H]2OCCN(Cc3ccccc3)C(=O)c3[nH]c4ccccc4c32)c1 | 34% | -3.89
C#CCCC1(CCC(=O)N2CCO[C@H](c3c(F)cccc3Cl)C2)N=N1 | -5% | 0.61
COc1cc(OC)nc(N2CCN3C(=O)OC[C@H]3C2)n1 | -4% | 0.66
CCc1cccc(C)c1NC(=O)Cn1cc(-c2ccccc2)c2ncn(CC)c(=O)c21 | 4% | -0.57
CCNC(=O)C(C)(C)CNC(=O)C(CC)N1CCOC(CC)C1 (stereo unspecified) | -2% | 0.28
CC(C)CNC(=O)[C@H](C)N(C)Cc1ccc(Cl)c(Cl)c1 | 2% | -0.26
CCC[C@H]1CN(c2nc3cc(C)ccc3o2)C[C@@H]1NS(C)(=O)=O | 12% | -1.28
Cc1noc(C(C)C)c1NC(=O)c1ccc2[nH]cnc2c1 | 1% | -0.16
CN(C)[C@H]1CCN(C(=O)c2ccc(C(=O)c3cccc(O)c3)cc2)C1 | -7% | 0.75
C=CCCCS(=O)(=O)NCc1nnc2ccc(Cl)cn12 | 13% | -1.46
O=C(NCc1cccnc1)c1cc(F)c[nH]1 | 10% | -1.26
O=c1cc(C2CC2)ncn1CC1CCN(c2nc3ccc(F)cc3o2)CC1 | -12% | 1.77
O=C1c2ccccc2C(=O)N1c1ccc(S(=O)(=O)N(CCO)c2ccccc2)cc1 | -37% | 4.39

Structure (SMILES) | % Inhibition | Z score
Cc1noc(-c2cncnc2NC2CCCC2)n1 | 1% | -0.14
CCN1C[C@@H](C(=O)NCC2(COc3ccccc3)CC2)CCC1=O | -6% | 1.22
COc1ccccc1-c1cn2c(C(=O)N3CCCCC[C@@H]3CO)csc2n1 | -9% | 1.25
CN(C)c1ncc(C(=O)NCc2ccc3c(c2)OCO3)cn1 | -2% | 0.28
O=S(=O)(N1CCCCCC1)N1CCc2[nH]cnc2C1 | -4% | 0.7
CC(C)c1nc([C@H](C)NCc2nc(C(C)C)n3ccccc23)n[nH]1 | 3% | -0.5
C#CC[C@@]1(C(=O)O)CCCCN1C(=O)OC(C)(C)C | -12% | 2.24
CO[C@@](F)(C(=O)Nc1c(Cl)cccc1Cl)C(F)(F)F | -8% | 1.55
Cc1nn(C)c(C)c1[C@H]1OCC[C@@H]1CNC(=O)c1cc(O)ccn1 | -9% | 0.92
C[C@@H](C(=O)N1CCc2ccccc21)n1nc(-c2ccccc2)ccc1=O | 3% | -0.58
C[C@@H](c1nc(-c2cccs2)no1)N1CCNC(=O)C1 | -2% | 0.26
Cc1ccc(NC(=O)Cn2cnc3c(c2=O)CCCC3)cc1Cl | 1% | -0.13
Cc1ccc(-n2nc(CCc3ccccc3)nc2[C@@H]2COCCO2)cc1C | -11% | 1.79
COc1ccccc1CC(=O)Oc1c(C)nn(C)c1C | -4% | 0.57
O=C(COc1ccccc1)Nc1ccc([C@@H](O)[C@H]2COCC(=O)N2)cc1 | 30% | -3.5
O=C(Nc1cccnc1)c1ccc(S(=O)(=O)c2ccccc2)cc1 | -15% | 2.28
Cc1ccc(C(=O)N[C@H](c2cccs2)C2CCOCC2)cc1F | 14% | -1.85
O=C(Nc1cccc2c1CCCC2)C1CCCC1 | -6% | 0.58
O=C(c1c(O)ccc2ccccc12)N1C[C@H]2C[C@H](O)[C@H](O)C[C@H]2C1 | -14% | 1.39
O=C(NC1CC1)[C@@H]1CCCN1c1ccnc(C2CCCC2)n1 | -20% | 3.3
Cc1nc(N2CCC[C@H](CNC(=O)c3ccco3)C2)ccc1F | -18% | 2.24

Structure (SMILES) | % Inhibition | Z score
CCN1CCc2c(OCC(=O)N3CCC(Cc4ccccc4)CC3)cccc2C1=O | 20% | -3.44
CCCCN(CC(N)=O)Cc1cc(F)ccc1OC | -2% | 0.33
O=C(NCCc1nccs1)[C@H]1C[C@@H](c2ccccc2)N2CCC[C@H]12 | 0% | -0.07
Oc1c(-n2cncn2)cnn1-c1ccc(OC(F)(F)F)cc1 | 10% | -1.33
O=C(c1ccc2nccnc2c1)N1CCC[C@H]1c1nc(-c2ccccc2)no1 | -9% | 1.86
CCn1c(CCc2cccc(NS(=O)(=O)c3ccc4c(c3)CCCC4)c2)nc2ccccc21 | -7% | 0.85
CC(C)c1cc(C(=O)N2CC(C)(C)[C@@H]2C2CC2)nn1C | -8% | 1.04
CCOc1ccc(N2C[C@@H](C(=O)Nc3cccc4cccnc34)CC2=O)cc1 | 2% | -0.47
ON1COc2ccc3ccccc3c2C1 | -8% | 1.02
Cc1ccc(NC(=O)Cc2nnc(-c3ccc4ncccc4c3)o2)c(Cl)c1 | -6% | 0.57
O=C1C[C@@H]2CCN(CC3CCCC3)C[C@@H]2CCOc2ccccc2N1 | 4% | -0.69
Clc1ccc(CN2CCCO[C@@H](CN3CCOCC3)C2)o1 | 0% | 0
CN(C(=O)[C@H]1CC(=O)N(Cc2cccc(C(F)(F)F)c2)C1)C1CC1 | -18% | 3.38
COC(=O)CC[C@@H]1CN(Cc2ccc(F)cc2)CC[C@@H]1N1CCN(c2cccc(C(F)(F)F)c2)CC1 | 8% | -1.02
Cc1sc([C@@H]2CCCN2c2nc3ccccc3c(=O)[nH]2)nc1C(=O)O | 3% | -0.52
CC(C)(C)OC(=O)N1CCC2(CC1)CCN2C(=O)c1ccc(O)c(Cl)c1 | -8% | 0.84
Cc1ccc(S(=O)(=O)Nc2ccc(NS(=O)(=O)c3ccc(C)cc3)c3ncccc23)cc1 | -4% | 0.48
CC(C)c1nn(C)cc1NC(=O)N1CCC(CN2CCNC2=O)CC1 | -12% | 1.87
O=C(Nc1sc2c(c1C(=O)O)CCC2)c1ccsc1 | 34% | -4.85
Cc1nc2c(c(=O)n1CC(=O)Nc1ccc3c(c1)OCO3)CN(Cc1ccccc1)CC2 | 3% | -0.33
